Measurements taken from EPA's CvTdb concentration-time database.
This continues a long series; more values of the same kind are listed elsewhere.

What was measured:
Test in all cases: concentration in plasma after dosing
[1] = tested on: Rat; conditions: dosed: Perfluorohexane-1-sulphonic acid – potassium salt, 4 mg/kg, Female, F344
[2] = tested on: Rat; conditions: 12 h; dosed: Perfluorohexane-1-sulphonic acid – potassium salt; 16 mg/kg; oral; Female; F344
[3] = tested on: Rat; conditions: dosed: Perfluorohexane-1-sulphonic acid – potassium salt, 4 mg/kg, Female, F344; remark: listed apart in the source
[4] = tested on: Rat; conditions: dosed: Perfluorohexane-1-sulphonic acid – potassium salt, 4 mg/kg, Female, F344; remark: listed apart in the source
[5] = tested on: Rat; conditions: 48 h; dosed: Perfluorohexane-1-sulphonic acid – potassium salt; 16 mg/kg; oral; Female; Harlan Sprague Dawley
[6] = tested on: Rat; conditions: dosed: Perfluorohexane-1-sulphonic acid – potassium salt, 32 mg/kg, oral, Female, Harlan Sprague Dawley
[7] = tested on: Rat; conditions: dosed: Perfluorohexane-1-sulphonic acid – potassium salt, 32 mg/kg, oral, Male, Harlan Sprague Dawley
[8] = tested on: Rat; conditions: dosed: Perfluorohexane-1-sulphonic acid – potassium salt, 32 mg/kg, oral, Female, Harlan Sprague Dawley; remark: listed apart in the source
[9] = tested on: Rat; conditions: dosed: Perfluorohexane-1-sulphonic acid – potassium salt, 4 mg/kg, Female, F344; remark: listed apart in the source
[10] = tested on: Rat; conditions: 12 h; dosed: Fluorotelomer alcohol 8+2; 24 mg/kg; oral; Male; Harlan Sprague Dawley
[11] = tested on: Rat; conditions: dosed: Fluorotelomer alcohol 8+2, 40 mg/kg, oral, Female, Harlan Sprague Dawley
[12] = tested on: Rat; conditions: dosed: Fluorotelomer alcohol 8+2, 48 mg/kg, oral, Male, Harlan Sprague Dawley
[13] = tested on: Rat; conditions: 6 h; dosed: Fluorotelomer alcohol 8+2; 24 mg/kg; oral; Male; Harlan Sprague Dawley
[14] = tested on: Rat; conditions: dosed: Fluorotelomer alcohol 8+2, 40 mg/kg, oral, Female, Harlan Sprague Dawley; remark: listed apart in the source
[15] = tested on: Rat; conditions: 3 h; dosed: Fluorotelomer alcohol 8+2; 80 mg/kg; oral; Female; Harlan Sprague Dawley
[16] = tested on: Rat; conditions: dosed: Fluorotelomer alcohol 8+2, 80 mg/kg, oral, Female, Harlan Sprague Dawley
[17] = tested on: Rat; conditions: dosed: Isoeugenol, 17 mg/kg, iv, Male, F344/N
[18] = tested on: Rat; conditions: dosed: Isoeugenol, 70 mg/kg, oral, Female, F344/N
[19] = tested on: Rat; conditions: dosed: Isoeugenol, 140 mg/kg, oral, Male, F344/N
[20] = tested on: Rat; conditions: dosed: Isoeugenol, 140 mg/kg, oral, Male, F344/N; remark: listed apart in the source
[21] = tested on: Rat; conditions: dosed: Isoeugenol, 70 mg/kg, oral, Female, F344/N; remark: listed apart in the source
[22] = tested on: Rat; conditions: dosed: Isoeugenol, 140 mg/kg, oral, Female, F344/N
[23] = tested on: Rat; conditions: dosed: Isoeugenol, 17 mg/kg, iv, Male, F344/N; remark: listed apart in the source
[24] = tested on: Rat; conditions: dosed: Isoeugenol, 140 mg/kg, oral, Male, F344/N; remark: listed apart in the source
[25] = tested on: Rat; conditions: dosed: Isoeugenol, 140 mg/kg, oral, Female, F344/N; remark: listed apart in the source
[26] = tested on: Rat; conditions: dosed: Isoeugenol, 70 mg/kg, oral, Female, F344/N; remark: listed apart in the source
[27] = tested on: Rat; conditions: dosed: Isoeugenol, 70 mg/kg, oral, Male, F344/N
[28] = tested on: Rat; conditions: dosed: Isoeugenol, 70 mg/kg, oral, Male, F344/N; remark: listed apart in the source
[29] = tested on: Rat; conditions: dosed: Isoeugenol, 140 mg/kg, oral, Female, F344/N; remark: listed apart in the source
[30] = tested on: Rat; conditions: dosed: Isoeugenol, 70 mg/kg, oral, Female, F344/N; remark: listed apart in the source
[31] = tested on: Rat; conditions: dosed: Isoeugenol, 17 mg/kg, iv, Female, F344/N
[32] = tested on: Rat; conditions: dosed: Isoeugenol, 140 mg/kg, oral, Female, F344/N; remark: listed apart in the source
[33] = tested on: Rat; conditions: dosed: Isoeugenol, 140 mg/kg, oral, Male, F344/N; remark: listed apart in the source
[34] = tested on: Rat; conditions: dosed: Isoeugenol, 140 mg/kg, oral, Male, F344/N; remark: listed apart in the source

O=S(=O)([O-])C(F)(F)C(F)(F)C(F)(F)C(F)(F)C(F)(F)C(F)(F)F.[K+] [Perfluorohexane-1-sulphonic acid – potassium salt]
Conditions	concentration in plasma [ng/mL]
[1], 0.25 h	41100
[1], 6 h	25200
[1], 864 h	6650
[3], 0.5 h	45600
[3], 24 h	17100
[4], 3 h	33900
[4], 5 min	62000
[4], 192 h	17300
[6], 1 h	46600
[6], 24 h	86300
[6], 288 h	1980
[7], 3 h	179000
[7], 24 h	160000
[7], 1200 h	27400
[8], 0.25 h	68700
[8], 12 h	109000
[8], 192 h	6840
[9], 3 h	28000
[9], 96 h	4120

Conditions	concentration in plasma [ng/mL]
[2]	126000
[5]	37300

O=C(O)CCC(F)(F)C(F)(F)C(F)(F)C(F)(F)C(F)(F)C(F)(F)C(F)(F)F [Fluorotelomer acid 7+3]
Conditions	concentration in plasma [ng/mL]
[10]	370
[13]	903
[15]	8360

Conditions	concentration in plasma [ng/mL]
[11], 48 h	176
[11], 192 h	56.9
[12], 0.25 h	31.8
[12], 6 h	1580
[14], 1 h	1090
[14], 24 h	270
[16], 0.25 h	75
[16], 24 h	1540

C/C=C/c1ccc(O)c(OC)c1 [Isoeugenol]
Conditions	concentration in plasma [ng/mL]
[17], 2 h	123
[17], 2 min	12200
[18], 0.75 h	263
[18], 8 h	151
[19], 1 h	495
[19], 4 h	784
[20], 5 h	344
[20], 20 min	3270
[21], 1 h	123
[21], 5 h	435
[22], 1.5 h	1250
[22], 6 h	499
[23], 0.5 h	995
[23], 3 h	24.5
[24], 5 min	1160
[24], 10 h	157
[25], 1.5 h	644
[25], 8 h	498
[26], 0.75 h	364
[26], 3 h	201
[27], 1 h	104
[27], 4 h	60.5
[28], 1 h	451
[28], 3 h	95.3
[29], 3 h	750
[29], 5 min	1400
[30], 5 min	1210
[30], 6 h	318
[31], 1 h	256
[31], 2.5 h	90.5
[32], 2 h	395
[32], 5 min	7620
[33], 0.5 h	725
[33], 5 h	563
[34], 4 h	618
[34], 5 min	635
